Results taken from patent publication US20220204567A1 (published 2022).

Target: wild type HA ectodomain of H1 A/Michigan/45/2015 with C-terminal Foldon trimerization domain
Assay: ELISA

B1: multidomain antibody MD3606 (Fc fusion)
chain: EVQLVESGGGLVQPGGSLRLSCAVSISIFDIYAMDWYRQAPGKQRDLVATSFRDGSTNYADSVKGRFTISRDNAKNTLYLQMNSLKPEDTAVYLCHVSLYRDPLGVAGGMGVYWGKGALVTVSSGGGGSGGGGSEVQLVESGGGLVQAGGSLKLSCAASGRTYAMGWFRQAPGKEREFVAHINALGTRTYYSDSVKGRFTISRDNAKNTEYLEMNNLKPEDTAVYYCTAQGQWRAAPVAVAAEYEFWGQGTQVTVSSGGGGSGGGGSEVQLVESGGGLVQPGGSLRLSCAATGFTLENKAIGWFRQTPGSEREGVLCISKSGSWTYYTDSMRGRFTISRDNAENTVYLQMDSLKPEDTAVYYCATTTAGGGLCWDGTTFSRLASSWGQGTQVTVSSGGGGSGGGGSEVQLVESGGGLVQPGGSLKLSCAASGFTFSTSWMYWLRQAPGKGLEWVSVINTDGGTYYADSVKDRFTISRDNAKDTLYLQMSSLKSEDTAVYYCAKDWGGPEPTRGQGTQVTVSS[human IgG1 Fc left out]
- EC50: 0.8 nM
